Source: PubChem BioAssay AID686979 (National Center for Advancing Translational Sciences (NCATS), 2013)
In all, about 420,000 compounds went through this assay and about 50,000 (12%) were called active. This list was built around the results that the source calls inconclusive (neither active nor inactive); the mix of calls is not that of the screen. Calls come from the whole dose curve; as a rule, active = well fitted inhibition curve with a large enough effect; inconclusive = small, poorly fitted or top-dose-only effect; inactive = flat fitted curve, though single readings scatter. Potencies of inconclusive entries are left out as doubtful fits.
% is set by controls: 0 for no effect and ±100 for the full control effect; potency is the fitted concentration of half-maximal effect; tags give direction and shape of the fitted curve.

Experiment: qHTS for Inhibitors of human tyrosyl-DNA phosphodiesterase 1 (TDP1): qHTS in cells in presence of CPT; note: nearly all actives have a fitted effect of over 55% in size
Settings: chicken DT40 Tdp1-/-;hTDP1 cells + 20 nM CPT, ATP luminescence, 48 h; activity change, negative = growth inhibition: at 46.2 µM (top of the series) unless noted
Method in brief: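 Cell growth measured by CellTiter-Glo luminescence after a minimum 48 h, 37 C compound exposure with 20 nM CPT in Tdp1-knockout DT40 cells stably expressing hTDP1, seeded 400/well; qHTS titration format.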
For `Oc1ccccc1-c1nc2cnccn2c1Nc1ccc2c(c1)OCCO2`, the Potency was inconclusive [inhibitor, partial curve, poor fit]. For `Cc1[nH]c2ccccc2c1/C=C/c1nc2ccccc2c(=O)[nH]1`, the Potency was inconclusive [inhibitor, single point]. In the case of `Cc1ccc(OCC(=O)Nc2nnc(S(=O)(=O)N3CCc4ccccc43)s2)cc1`, the Potency is reported as inconclusive [inhibitor, single point]. With `CC(C)n1ncc2c(C(=O)NCc3ccccc3CN(C)C)cc(C3CC3)nc21` the Potency was inconclusive [inhibitor, single point]. With `Cc1c(Br)c(C(=O)NCc2cc3cc(Cl)ccc3[nH]2)nn1C` the Potency was inconclusive [inhibitor, partial curve]. In the case of `CCOC(=O)C1(C)CCCCN1C(=O)c1ccnc(Cl)c1` (stereo unspecified), the “activity change, negative = growth inhibition” value is reported as inactive: -10.3%. With `COc1ccc(CCCc2nnc(SCC(=O)Nc3cc(F)ccc3C)o2)cc1` the Potency was inconclusive [inhibitor, single point]. For `CC1(C)CC[C@]2(C(=O)O)CC[C@]3(CO)C(=CCC4[C@@]5(C)C[C@H](O)[C@H](O)[C@@](C)(C(=O)O)C5CC[C@]43C)[C@@H]2C1` (stereo partly specified), the “activity change, negative = growth inhibition” value was inactive: 0.235%. For `CCc1ccc2oc(-c3cc(N=Cc4cccc(OC)c4O)ccc3O)nc2c1`, the “activity change, negative = growth inhibition” value was inactive: -29.2%. With `CCCC1(c2ccccc2)NC(=O)N(CC(=O)N(C)Cc2c(F)cccc2Cl)C1=O` (stereo unspecified) the Potency was inconclusive [inhibitor, single point]. For `Cc1cnc(NC(=O)c2cc3c(C)nn(-c4ccccc4)c3s2)s1`, the Potency was inconclusive [inhibitor, single point]. For `COc1ccc(Cn2c(C(=O)O)c(CNCc3ccc(OC)cc3OC)c3ccc(C)cc32)cc1`, the Potency was active: 14.6 µM. In the case of `C=CCNC(=O)c1cnn2c1NC(=C)C=C2C`, the “activity change, negative = growth inhibition” value is reported as inactive: 9.63%. With `Fc1ccc(CNCCCSc2nnnn2-c2ccccc2)cc1` the Potency was inconclusive [inhibitor, partial curve]. For `Cc1ccc(C)n1CCN1CCN(S(=O)(=O)c2ccc(F)cc2F)CC1`, the Potency was inconclusive [inhibitor, single point]. With `CCNC(=O)C1(C)CCCN1C(=O)c1cc(OC)c(OC)c(OC)c1` (stereo unspecified) the “activity change, negative = growth inhibition” value was inactive: -0.867%. In the case of `COc1cc2c(C(=O)NCc3ccc4c(c3)OCO4)cn(C)c(=O)c2cc1OC`, the Potency is reported as inconclusive [inhibitor, single point]. For `Cc1cc(C)n(-c2ccc(C(=O)Nc3ccc(S(=O)(=O)N(C)C)cc3)cc2)n1`, the Potency was inconclusive [inhibitor, single point]. With `COc1ccc(C2=NS(=O)(=O)N(C)C(C(=O)NC3CCCCC3)=C2)cc1OC` the Potency was active: 9.2 µM. With `CCOC(=O)N1CCN(C(=O)c2ccc3c(c2)N(C)C(=O)/C(=C\c2ccc(OCC)c(OC)c2)S3)CC1` the Potency was inconclusive [inhibitor, single point]. With `C=CCn1c(CNC(=O)c2ccccc2F)nnc1SCC(=O)NC(C)c1ccccc1` (stereo unspecified) the “activity change, negative = growth inhibition” value was inactive: -0.0234%. In the case of `COc1cc(C(=O)Nc2ccccc2N2CCN(S(C)(=O)=O)CC2)cc(OC)c1OC`, the Potency is reported as inconclusive [inhibitor, single point]. In the case of `CCCCc1ccc(S(=O)(=O)NC2CCS(=O)(=O)C2)cc1` (stereo unspecified), the Potency is reported as active: 20.6 µM. In the case of `CN(C(=O)CSc1nc2ccc(NC(=O)c3cccc(F)c3)cc2s1)c1ccccc1`, the Potency is reported as active: 8.2 µM. With `CC(=O)NC(c1ccc(F)c(F)c1)c1nc(-c2ccc(C)c(C)c2)cs1` (stereo unspecified) the Potency was inconclusive [inhibitor, single point]. For `Cc1nnc(SCC(=O)NC2CCCC2)n1CCc1ccccc1`, the “activity change, negative = growth inhibition” value was inactive: 2.97%. With `CCOc1ccc(CNC(=O)c2ccc3c(Cl)c4c(nc3c2)CCCC4)cc1` the Potency was active: 20.6 µM. In the case of `CC(C)OCCCN1CC(=O)N2[C@@H](Cc3c([nH]c4ccccc34)C2(C)C)C1=O`, the Potency is reported as inconclusive [inhibitor, single point]. With `N#CC1(NC(=O)CSc2ccccn2)CCCCC1` the “activity change, negative = growth inhibition” value was inactive: 6.5%. With `Cn1cc(S(=O)(=O)N2CCCC2)cc1C(=O)NCCc1ccccc1` the Potency was inconclusive [inhibitor, single point]. For `CCc1nnc(N/N=C/c2cccs2)n1N`, the Potency was active: 25.9 µM. In the case of `O=C1NC(=O)c2cc(NC(=O)c3cccc4ccccc34)ccc21`, the Potency is reported as inconclusive [inhibitor, single point]. In the case of `CN(CCc1nc2ccc(Cl)cc2[nH]1)Cc1nc(CC2CC2)no1`, the Potency is reported as inconclusive [inhibitor, single point]. For `COc1ccc2nc(NC(=O)CSc3cn[nH]n3)sc2c1`, the “activity change, negative = growth inhibition” value was inactive: -1.7%. With `c1ccc(CC(Cc2ccccc2)c2ccccn2)cc1` the Potency was inconclusive [inhibitor, single point]. With `COc1cc(Cl)c(C)cc1NC(=O)CC1Oc2ccccc2NC1=O` (stereo unspecified) the Potency was inconclusive [inhibitor, single point]. For `Cc1cccc(-n2c(C)cc(/C=N/n3cnnc3)c2C)c1`, the Potency was active: 23.1 µM. In the case of `CN(C)C(=O)CCc1ccc2c3c([nH]c2c1)[C@]1(C)[C@@H](C(=O)N2CCOCC2)C[C@H](CC(=O)NCCCn2ccnc2)C(=O)N1CC3`, the “activity change, negative = growth inhibition” value is reported as inactive: -1.37%. In the case of `CN(c1ccccc1)S(=O)(=O)c1cccc(NC(=O)c2cncc(Br)c2)c1`, the Potency is reported as inconclusive [inhibitor, single point]. In the case of `CCOC(=O)/C(=C\c1ccccc1)NC(=O)c1ccccc1`, the “activity change, negative = growth inhibition” value is reported as inactive: 10.1%. In the case of `O=C(Oc1ccccc1)c1ccccc1O`, the “activity change, negative = growth inhibition” value is reported as inactive: -9.72%. With `CN1CCN(C(=O)c2ccc3c(Cl)c4c(nc3c2)CCCC4)CC1` the Potency was inconclusive [inhibitor, single point]. For `COc1cccc(/C=N/NC(=S)Nc2cccc(C(=O)O)c2)c1O`, the Potency was inconclusive [inhibitor, partial curve]. For `Cc1cccc(S(=O)(=O)c2c(C)cc(C)nc2Cl)c1`, the “activity change, negative = growth inhibition” value was inactive: -6.18%. For `CC1CC(C)CN(S(=O)(=O)c2ccc(NC(=S)NC(=O)c3ccccc3)cc2)C1` (stereo unspecified), the Potency was inconclusive [inhibitor, single point]. With `CCOc1ccc2c(c1)C(c1ccccc1)=NNC(c1ccccc1)=N2` the Potency was inconclusive [inhibitor, single point]. In the case of `CCOC(=O)C1C(=O)NC(c2ccccc2)=NC1c1ccc(Cl)cc1` (stereo unspecified), the “activity change, negative = growth inhibition” value is reported as inactive: -5.6%. For `COc1ccccc1NC(=O)CSc1nc2n[nH]c(C)c2c(=N)n1-c1ccccc1Cl`, the Potency was active: 23.1 µM. In the case of `CCN(CC)c1ccc(NC(=O)C2CC(=O)N(Cc3ccccc3)C2)cc1` (stereo unspecified), the Potency is reported as inconclusive [inhibitor, single point]. With `CCc1ccc(NC(=O)Cn2nc(C)c([N+](=O)[O-])c2C)cc1` the “activity change, negative = growth inhibition” value was inactive: -26%. For `COc1ccc(CCNC(=O)COC(=O)CCC(=O)c2ccc(F)cc2)cc1OC`, the “activity change, negative = growth inhibition” value was inactive: -0.266%. For `CCOC(=O)C1CCCN(C2CC(=O)N(c3cccc(C(F)(F)F)c3)C2=O)C1` (stereo unspecified), the Potency was inconclusive [inhibitor, single point]. For `Cc1ccc(NC(=O)N2CCCC2C(=O)Nc2nnc(C(C)C)s2)cc1` (stereo unspecified), the “activity change, negative = growth inhibition” value was inactive: 12%. With `Cc1nc2cc(NC(=O)NCCC3=CCCCC3)ccc2o1` the Potency was inconclusive [inhibitor, partial curve]. With `CCN(CC)S(=O)(=O)c1ccc(OC)c(NC(=O)c2cccc([N+](=O)[O-])c2C)c1` the Potency was inconclusive [inhibitor, single point]. For `COc1ccc(C(=O)N2CCCC(CO)(Cc3ccccc3C)C2)o1` (stereo unspecified), the Potency was inconclusive [inhibitor, single point]. With `CCN(CC)c1ccc(C2C(C(=O)OC)=C(C)NC(C)=C2C(=O)OC)cc1` the Potency was inconclusive [inhibitor, single point]. With `COc1ccc(NC(=O)[C@@H]2CCCN2C(=O)[C@@H]2Cc3ccccc3CN2C(=O)OC(C)(C)C)cc1` the “activity change, negative = growth inhibition” value was inactive: -21.8%. With `CCn1c(=O)c2cc(C(=O)Nc3cccc(C(F)(F)F)c3)sc2c2ccccc21` the Potency was active: 7.31 µM. In the case of `COc1ccc(NC(=O)c2c(NCc3ccc(C)o3)sc3c2CCCCC3)c(OC)c1`, the Potency is reported as active: 9.2 µM. With `COc1ccc(N(C(=O)c2ccco2)C(C(=O)NC2CCCCC2)c2cccs2)cc1OC` (stereo unspecified) the Potency was inconclusive [inhibitor, partial curve, poor fit]. For `O=S(=O)(c1cccc(COc2c(Cl)cccc2Cl)c1)N1CCOCC1`, the Potency was inconclusive [inhibitor, single point]. With `CS(=O)(=O)c1ccc(Nc2nc(C(N)Cc3ccccc3)cs2)cc1` (stereo unspecified) the Potency was inconclusive [inhibitor, single point]. In the case of `CC1(Cc2cccc(C#N)c2)C(=O)Nc2ccc(-c3cccc(C(F)(F)F)c3)cc21` (stereo unspecified), the Potency is reported as inconclusive [inhibitor, single point]. For `CCOC(=O)C1CCN(CC(=O)Nc2ccc(S(=O)(=O)N3CCC(C)CC3)cc2)CC1`, the Potency was inconclusive [inhibitor, single point]. In the case of `CCN(CC)c1nc(-c2ccccc2)ncc1S(=O)(=O)c1ccc(C)cc1`, the Potency is reported as inconclusive [inhibitor, single point]. For `Cc1ccsc1C(=O)OCC(=O)Nc1cccc(F)c1`, the “activity change, negative = growth inhibition” value was inactive: -4.82%. In the case of `CCC(Sc1nc2nccnc2c(=O)n1Cc1ccccc1Cl)C(=O)NC1CCCCC1` (stereo unspecified), the Potency is reported as inconclusive [inhibitor, single point]. In the case of `COc1ccccc1N(CC(=O)N1CCCCCC1)S(=O)(=O)c1ccc(C)cc1`, the Potency is reported as inconclusive [inhibitor, single point]. In the case of `COc1ccc(-c2cc(C(=O)N3CCCC3)c3ccccc3n2)cc1`, the “activity change, negative = growth inhibition” value is reported as inactive: 2.89%. With `Cc1cc(C)c2c(c1)C1C=CCC1C(c1ccc(S(=O)(=O)N3CCOCC3)cc1)N2` (stereo unspecified) the “activity change, negative = growth inhibition” value was inactive: 5.62%.
